# Laboratory results reported in PubChem BioAssay AID651820 (National Center for Advancing Translational Sciences (NCATS), 2012).
# Among all 340,000 compounds or so, about 12,000 (3.5%) were called active. Inconclusive means that the source gave no clear call. Such entries were picked first, then a sample of the others. Calls follow the shape of the dose curve; as a rule, active = well fitted inhibition curve with a large enough effect; inconclusive = small, poorly fitted or top-dose-only effect, or another doubt; inactive = no such curve, though single readings can be large or run the other way. Potencies of inconclusive entries are left out as doubtful fits.
# Assay: qHTS Assay for Inhibitors of Hepatitis C Virus (HCV)
# Details: Huh7.5.1 HCVcc-Cre (HCVcc is cell-culture hepatitis C virus) infection, luciferase reporter, 44 h; series mostly up to 41.8 µM
# In short: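 Luciferase read-out (15 sec integration) after a 15 min room-temperature substrate step quantifies HCVcc-Cre infection. Cells, 1,000 per well, had compound added 4 h post-plating, then virus at ~0.5 moi, and were cultured 44 h.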
# Potency is read from the fitted curve at half-maximal effect; tags tell the direction and shape of the fitted curve.
row,SMILES,Potency
1,CC(=O)Nc1ccc(NC(=O)COC(=O)c2ccc([N+](=O)[O-])o2)cc1,inactive
2,C[C@H](NC(=O)c1ncn(C)c1C(=O)N[C@@H](C)c1ccccc1)c1ccccc1,inactive
3,CC1CC(N(C(=O)c2ccc(Cl)cc2)c2ccccc2)c2ccccc2N1C(=O)c1ccco1 (stereo not given),active: 10 µM
4,COc1ccc(OC)c(CCNC(=O)CS(=O)(=O)Cc2nc(-c3ccc(C)cc3)oc2C)c1,active: 3.55 µM
5,COc1ccc(-c2nc(N)c(C#N)c(-c3cccnc3)c2C)cc1,"inconclusive [inhibitor, single point]"
6,O=C(NCc1ccccn1)c1ccc(OC2CCN(Cc3ccc(Cl)s3)CC2)cc1,"inconclusive [inhibitor, single point]"
7,CN(C)C(=S)N=c1ssc(=S)n1Cc1ccccc1,"inconclusive [inhibitor, full curve, poor fit]"
8,Fc1cccc(CCN2CCNC[C@@H]2CC2CCCCC2)c1,"inconclusive [inhibitor, single point]"
9,CCCCNc1nnc(SCC(=O)c2c[nH]c3ccccc23)s1,inactive
10,CCOc1ccc(-n2ccnc(SCC(=O)Nc3ccc(OC)cc3OC)c2=O)cc1,active: 8.91 µM
11,C/C(=N\NC(=S)NCCc1ccccc1)c1cccc(Br)c1,inactive
12,C=CC[C@H](CC(=O)NCCO)C(=O)N[C@H](COC(=O)[C@@H](CC=C)CC(=O)OC(C)(C)C)Cc1c[nH]c2ccccc12,inactive
13,Cn1c(-c2ccsc2)c(-c2cccs2)c2cc(Br)ccc21,"inconclusive [inhibitor, full curve]"
14,CCOc1ccc(NC(=O)CN(C)C(=O)C2CCCO2)cc1OCC (stereo not given),inactive
15,COc1ccc(C2/C=C\CN(Cc3ccco3)CC(=O)N2Cc2ccc(F)cc2)cc1 (stereo not given),"inconclusive [inhibitor, single point]"
16,CCOc1cc(-c2noc(-c3ccncc3)n2)cc(Br)c1OC,"inconclusive [inhibitor, full curve]"
17,CCC(C)Nc1nc2c(c(=O)[nH]c(=O)n2C)n1CCOc1ccccc1 (stereo not given),inactive
18,COc1ccc(-c2cc(C3CC3)nc(SCC(=O)c3cccs3)c2C#N)cc1,"inconclusive [inhibitor, single point]"
19,Cc1cn([C@@H](CCCCNC(=O)OC(C)(C)C)C(=O)NCCCCCCCCCCC(=O)N2CCN(C(=O)OC(C)(C)C)CC2)nn1,"inconclusive [inhibitor, full curve]"
20,CN(Cc1ccccc1)C(=O)COC(=O)c1cc(=O)c2ccccc2o1,"inconclusive [inhibitor, single point]"
21,COc1cc(/C=N/N=C(/N)c2nonc2N)cc(Br)c1OCc1ccccc1C,"inconclusive [inhibitor, partial curve]"
22,CCCCn1nc2cc(C(=O)NC3CCc4ccccc43)ccc2c1OCC (stereo not given),"inconclusive [inhibitor, full curve, poor fit]"
23,O=S1(=O)c2cccc3cccc(c23)N1Cc1nnc(-c2ccccc2Br)o1,"inconclusive [inhibitor, single point]"

row,SMILES,Potency
1,Cc1cc2c(cc1C)-c1nnnn1C(C)(C)C2,"inconclusive [inhibitor, single point]"
2,O=C(Cc1ccc(F)cc1)OCN1C(=O)c2ccccc2C1=O,inactive
3,COc1ccc(OC)c(-c2csc(N(C)C(=O)Cc3ccccc3)n2)c1,"inconclusive [inhibitor, single point]"
4,COc1ccc(C2CC(c3ccccc3)=NN2c2ccc(/C=N/NC(=O)c3ccncc3)cc2)cc1 (stereo not given),"inconclusive [inhibitor, single point]"
5,CC(C)Nc1nc(NC(C)C)nc(N(C#N)CCOc2ccc(Cl)cc2Cl)n1,"inconclusive [inhibitor, partial curve, poor fit]"
6,CN(C)CCC=C1c2ccccc2C=Cc2ccccc21,active: 31.6 µM
7,CC1CCc2c(C(=O)NCc3ccco3)csc2C1 (stereo not given),"inconclusive [inhibitor, single point]"
8,CCOC(=O)c1cc2cc(OC)ccc2nc1C,"inconclusive [inhibitor, single point]"
9,Cc1ccc2[nH]c(=O)c(CN(C(=O)c3cccc([N+](=O)[O-])c3)C(C)C)cc2c1,"inconclusive [inhibitor, partial curve]"
10,CC(=O)c1ccccc1OCCn1nnc(-c2ccc(C)cc2)n1,"inconclusive [inhibitor, single point]"
11,O=C(CN1CC(=O)Oc2ccccc21)NCc1ccco1,inactive
12,COc1cccc(N2C(=O)C(O)=C(C(C)=O)C2c2ccc(OC)c(OC)c2)c1 (stereo not given),inactive
13,N=c1c(C(=O)NCC2CCCO2)cc2c(=O)n3ccccc3nc2n1Cc1ccc(F)cc1 (stereo not given),"inconclusive [inhibitor, partial curve, poor fit]"
14,CCC(C)Sc1ccc([C@H]2N[C@@](Cc3ccccc3)(C(=O)OC)[C@H]3C(=O)N(CC)C(=O)[C@@H]23)cc1 (stereo not given in full),"inconclusive [inhibitor, single point]"
15,CCOc1ccc(C(=O)Nc2ccc3nc(N4CCN(CC)CC4)cc(C)c3c2)cc1,"inconclusive [inhibitor, full curve]"
16,CCOc1ccc(NC(=O)CC2C(=O)N(c3ccccc3)C(=S)N2Cc2ccccn2)cc1 (stereo not given),"inconclusive [inhibitor, single point]"
17,O=C(Nc1ccc(S(=O)(=O)N2CCc3ccccc32)cc1)c1ccco1,active: 8.91 µM
18,COc1ccc2occ(C(C)=O)c2c1,inactive
19,CCOC(=O)C1CCN(S(=O)(=O)c2ccc(OCC(=O)OC)cc2)CC1,inactive
20,Cc1ccc(N(Cc2ccccc2)C(=O)Cc2ccc(S(=O)(=O)N3CCOCC3)s2)cc1,"inconclusive [inhibitor, partial curve]"
21,CCOC(=O)C1=C(C)N(CCCC(=O)O)C(=O)NC1c1ccc(Cl)cc1Cl (stereo not given),inactive
22,CC(=O)/C(C#N)=C1\NC(=O)C(Cc2ccccc2)S1 (stereo not given),inactive
